Data: the RNAGym collection of RNA variant scans (doi:10.7554/elife.90254)
The source gives no read counts; variants with many changes may rest on few reads.

B1: LINE1-mini (parent)
chain: GGCAGAGCUCAACACAGCGUGGCAAAGUGGCUGUGGCUAGACUGCC

Variants of: B1
Assay: self-cleavage, relative activity (ratio to wild type); higher = more cleavage; in vitro, sequencing; the parent is a self-cleaving ribozyme

| Variant | self-cleavage |
| --- | --- |
| A4U U9A C31G C46A | 0.01 |
| G5A C10G C45A | 0.02 |
| G5A G29C C31G | 0.03 |
| G5A G19A G29U C42U C46G | 0.41 |
| G5C A6G U9A | 0.01 |
| G5A C10G C37A | 0.02 |
| G5C A6U C10G G17U G30A G36C | 0.02 |
| A4U G21U C46A | 0.12 |
| G5A G19U C31A U32C G33A A41G | 0.05 |
| A4U G21A A24G G30A U34G C45A | 0.03 |
| A4U U28C G29U U43C C46U | 0.12 |
| G5A C8G A24G | 0.05 |
| G5A A14C C15G G17A C23A U32A | 0.03 |
| G5A G36U U38C | 0.03 |
| A4U U28C C46G | 0.2 |
| G5A C10A C13A G19U C31A | 0.05 |
| G5C A6G C10A C13G G19C C23A G30C | 0 |
| A4U G33U G35U | 0.01 |
| A4U G7A A11C C23U G40U A41U | 0.03 |
| A4U U9C C15G C37A | 0.05 |
| A4U U28C U38C | 0.03 |
| A4U U9A C42U | 0.16 |
| G5A G7A C10A | 0.03 |
| G5C A12C C23U U38C | 0.03 |

| Variant | self-cleavage |
| --- | --- |
| G5A G19U C23A | 0.03 |
| A4U G17A G33C A41U | 0.04 |
| A4U G5C A12G C15U | 0.08 |
| G5A A14U C15U | 0.13 |
| G5A A11G G19A G22A C23G A24C A25C C46U | 0 |
| G5A U20G A25U | 0.15 |
| G5C A11C G19C G22U U28C | 0 |
| G5A U9A U28G G33C A41G G44U | 0.25 |
| G5A G33U U43C | 0.01 |
| G5A U9C A12C G21U | 0.06 |
| G5A G7A A16U U34C | 0.25 |
| A4U G22C G35U | 0.05 |
| A4U G27A C42A C46U | 0.03 |
| A4U G22C A26G | 0.05 |
| G5A C18U G36U C37U A39C | 0.03 |
| G5A C10U A16U | 0.14 |
| G5A C23A G36A | 0.1 |
| G5A A6G G44C | 0.08 |
| G5A U9A A26G U38A | 0.31 |
| G5A A6G A12C C13A C15A G22C G33A | 0.01 |
| G5C A12C A16U U28G U32A C45U | 0.02 |
| G5C A6C G30A U32A G36U C37U A41C | 0.02 |
| G5A G7C C13G | 0.15 |
| A4U G19A U20G | 0.05 |

| Variant | self-cleavage |
| --- | --- |
| A4U U20G C37A | 0.02 |
| G5A U32A G40C | 0.04 |
| G5A U32G C46G | 0.01 |
| G5A U28C C37U | 0.01 |
| A4U U9C A12G G29A | 0 |
| G5A A6C U32A G36U | 0.01 |
| A4U G5U U9G G35U | 0.04 |
| G5A A14U U20C G40U | 0.16 |
| G5A C8U C10A C46A | 0.02 |
| G5A A24U G33U | 0.06 |
| G5A G17A A25C C46A | 0.04 |
| G5A A39U C45U | 0.07 |
| G5A G7C C37U | 0.34 |
| A4U U28A U34A | 0.03 |
| G5C A6C C8U A39U | 0.51 |
| G5A G7C U43A | 0.22 |
| G5A G21A U34G G40A G44A | 0.03 |
| G5C A6U U9G | 0.35 |
| A4U G7C C42A | 0.05 |
| A4U G33U A39G | 0.05 |
| G5A A16U C31A | 0.03 |
| G5A A24C A41C | 0.04 |
| A4U U9A G19A | 0.2 |
| A4U G17C U38G | 0 |

| Variant | self-cleavage |
| --- | --- |
| G5A A14G U20A | 0.03 |
| G5A C8G C23A C31A | 0.25 |
| A4U G5C U9C A14C A24U | 0.04 |
| G5A U20G C23A G35U | 0.11 |
| G5A G40A C45G | 0.01 |
| G5A A12U A26G C42U | 0.08 |
| G5A G27A G30C G40U | 0.05 |
| G5A A6C C13A G29A | 0.07 |
| G5A A11G A26C U32G A41G | 0.01 |
| G5A A11U G21A C23G A41G C42A | 0.01 |
| G5A U38C C42G | 0.11 |
| G5A G33A U43C C45A | 0.07 |
| G5A G7C A11G G40U | 0.05 |
| G5A C10A A14U U38C A41C | 0.02 |
| G5C A6U C10A G19C C31G U38C | 0 |
| G5A G30U G40U | 0.02 |
| A4U G21U C37A | 0.03 |
| G5A G19U U32G G33U G44A | 0.01 |
| G5A C13U G35U | 0.09 |
| G5A G7C U9A G30C U32G | 0.03 |
| G5A A11C A12C G21U C45U | 0.01 |
| G5A C13U U32A | 0.09 |
| A4U G36A C46G | 0.26 |
| G5A A11G A25G | 0.01 |

| Variant | self-cleavage |
| --- | --- |
| G5A C8G G35A C37U C42U | 0.07 |
| G5C A6U G35A U38G | 0.06 |
| G5C A11U G17U G27U G33A U34G | 0.01 |
| G5A G35U G40C | 0.01 |
| G5A A25G A26C G27C G36C C46A | 0.04 |
| A4U G7A A11G A26G G30A | 0.04 |
| G5A U9G U32G U43C | 0 |
| G5A U32C G33C U34G | 0.04 |
| G5A C8U C13A C46A | 0.65 |
| G5A A6C U9C U20G G29U G30U | 0.04 |
| A4U U20C C31U U32A A41U | 0.03 |
| G5A A12C G30U U43A | 0.02 |
| G5A A12C G27C | 0.01 |
| G5A A6C A11G A25U A41U | 0.02 |
| G5A A12U A16U C23G | 0.05 |
| G5A A11G C15G A25C | 0.01 |
| G5A C13U C15U G30C | 0.06 |
| A4U G19C A26C C46A | 0.09 |
| G5A C15U G17A G35C | 0.03 |
| A4U U9A A12C A14U C37A | 0.02 |
| G5A U28A C31U C45U | 0.02 |
| A4U G29U C37G | 0.43 |
| G5A A11G G21U C42A | 0 |
| G5A A11U G19C U20G | 0.01 |

| Variant | self-cleavage |
| --- | --- |
| A4U U9A G27U C42A | 0.21 |
| A4U G30C C45G | 0.07 |
| G5A A11G C45A | 0.02 |
| G5A U20G C42U U43C | 0.12 |
| G5A A12U A16C G17U A39C G40C G44U C46A | 0.01 |
| G5A A6G G22C G40A C42U | 0.03 |
| G5A C15G G22C C31A U32G G44A | 0 |
| A4U G35C A39U | 0.04 |
| A4U G5C A12C G40C | 0.07 |
| A4U U9G G19A G44A | 0.29 |
| G5A G19U C23A A26C | 0.05 |
| A4U U9G G44A | 0.72 |
| G5A C8U G17A G21C G27A | 0.13 |
| G5A C15U A16U U20C | 0.07 |
| G5A G7A C18G C23G C31G | 0.07 |
| G5A A12G U32G | 0.04 |
| G5A C15A G22A U32C | 0.02 |
| G5A C15G G17U | 0.03 |
| A4U G29U U43C | 0.01 |
| A4U G30C G36A | 0.21 |
| G5A A25C U28C G44U | 0.05 |
| G5A G7A C46U | 0.21 |
| G5A G29C C42G | 0.04 |
| G5A G40C C42A | 0.03 |

| Variant | self-cleavage |
| --- | --- |
| G5A A39G A41U | 0.04 |
| A4U G27A C46A | 0.12 |
| A4U G22C C45A | 0 |
| G5A C10A G44U | 0.06 |
| G5A C42U C45A | 0.07 |
| G5A G17C G44U | 0 |
| G5A G7C C10U A14C C15U A24U U38C | 0.05 |
| G5A C8U C46U | 0.17 |
| G5A A12G C13A | 0.05 |
| G5A C23G A24C U28C C45A | 0.02 |
| G5A C8U C42A | 0.06 |
| G5A C8U G17C | 1.25 |
| G5A U9C A12U C18A G19C | 0.04 |
| A4U G36C C37G G44C C46A | 0.43 |
| A4U U9G U20C G21A | 0.12 |
| G5A C23U C31U | 0.42 |
| G5A G7U G30A | 1.09 |
| G5A A14G A26U G30C | 0.15 |
| G5A G35C G36U | 0.01 |
| G5A C15A G22A G29U G36U | 0.08 |
| G5A G27C U34A | 0.05 |
| G5A G17A U38G C42G | 0.05 |
| A4U G7A G27C A39U | 0.83 |
